Source: the supplement of paper PMC12217912
This is one part of the list. Sequences were assembled here from the parent chain. Values near 0.05 are background.

B1: TEV protease; numbered along this chain (parent)
chain: MGESLFKGPRDYNPISSSICHLTNESDGHTTSLYGIGFGPFIITNKHLFRRNNGTLVVQSLHGVFKVKDTTTLQQHLVDGRDMIIIRMPKDFPPFPQKLKFREPQREERICLVTTNFQTKSMSSMVSDTSCTFPSGDGIFWKHWIQTKDGQCGSPLVSTRDGFIVGIHSASNFTNTNNYFTSVPKNFMELLTNQEAQQWVSGWRLNADSVLWGGHKVFMVKPEEPFQPVKEATQL

Variants of: B1
Test: raw area under fraction-flipped curve 0-4 h after induction (AUC4h, not background-subtracted), DNA-recorder readout of cleavage of the substrate (dimensionless); higher = more cleavage of the substrate by the protease variant
Details: temperature: 34 °C; time window: 0-4 h after rhamnose induction
Procedure: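 In vivo DNA recorder in E. coli TOP10(DE3) ΔrhaA at 34 °C. Each TEVp single-site mutant (parent TEVp 0) is paired with a single-site variant of the 7-mer TEVs (canonical ENLYFQ|S). The substrate sits between flexible linkers in a Bxb1-sfGFP-TEVs-SsrA fusion, so cleavage stabilises Bxb1 and speeds flipping of a recombination array, read by NGS. The value is the raw area under the fraction-flipped curve over 0-4 h after rhamnose induction (AUC4h), with ≥20 reads per time point. It is not background-subtracted; inactive controls average about 0.047.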
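Note: Bxb1 expression induced with 0.2% (w/v) L-rhamnose at OD600 near 0.5, cultures sampled hourly, flipped fraction per protease–substrate barcode pair counted by paired-end Illumina sequencing.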

Variant	area with substrate ENLYFAS	area with substrate ENLYFCS	area with substrate ENLYFDS	area with substrate ENLYFES	area with substrate ENLYFFS	area with substrate ENLYFHS	area with substrate ENLYFIS	area with substrate ENLYFKS	area with substrate ENLYFLS	area with substrate ENLYFMS	area with substrate ENLYFNS	area with substrate ENLYFPS	area with substrate ENLYFTS	area with substrate ENLYFWS	area with substrate ENLYFYS	area with substrate ENLYFGS	area with substrate ENLYFRS	area with substrate ENLYFSS	area with substrate ENLYFVS
F173A	0.0649	0.0591	0.0689	0.0668	0.0547	0.0416	0.059	0.06	0.0536	0.0574	0.0836	0.0478	0.0532	0.053	0.0502				
F173D	0.0578	0.0591	0.0572	0.0598	0.074	0.0636	0.0652	0.0601	0.0492	0.0682	0.0642	0.0667	0.0591	0.0595	0.0579	0.0595	0.0698	0.0787	0.0581
N175C	0.0655	0.0521	0.0504	0.0657	0.0578		0.0369	0.0631		0.055		0.0582	0.0565	0.045	0.0704		0.0414		
N177A	0.054	0.0817	0.0678	0.067	0.0692	0.0655	0.0603		0.0616	0.0656	0.0552	0.06	0.0759	0.0601	0.0655			0.0439	
N177H	0.0552	0.0614	0.0709	0.0552	0.0746	0.0475	0.0524	0.0618		0.0605		0.0625	0.0647	0.0516			0.0521	0.0687	0.0696
F180C	0.0565	0.0639		0.0557	0.0683		0.0578	0.0481	0.0478	0.0648		0.0485	0.0585	0.0641	0.0495		0.0609	0.0605	
F180L	0.0516	0.0565			0.0582	0.0562		0.0588		0.066				0.0491		0.0752	0.0497	0.0437	
F180V	0.0483	0.0563	0.0468	0.0879	0.0589		0.0346	0.0579	0.0619	0.0448	0.0641	0.0523	0.0731		0.0545			0.0569	
T181L	0.0474		0.042	0.0506		0.0582	0.0553			0.0629		0.0459				0.0514	0.0805	0.0397	
V183T	0.06	0.0464	0.0638	0.0556	0.0728	0.0522	0.0559		0.0631	0.0596	0.0621	0.0608	0.0722	0.0628				0.0569	0.0624
F187E	0.049		0.0592	0.0559	0.0632		0.0517	0.0509			0.0447	0.0611	0.0463	0.0496	0.048	0.0382	0.0585		0.0579
F187I	0.0596	0.0603	0.0497	0.0634	0.0727		0.0593	0.0647		0.0635		0.0584	0.0528	0.051			0.0719	0.0646	0.067
F187Q	0.0631		0.0331	0.0643	0.0637	0.0474	0.0544	0.0573		0.0091		0.0538	0.0531		0.054	0.0486		0.0687	0.0428
A196L	0.0609	0.0611	0.071	0.0656	0.0774	0.0582	0.0521	0.0762	0.0563	0.0643	0.0715	0.059	0.0544	0.0533	0.0592	0.0572	0.0623	0.067	0.0585
Q197G	0.0629	0.065		0.0669	0.0621	0.0581	0.0509	0.0594		0.0523			0.0478	0.0566	0.0712	0.0568		0.0615	0.0567
Q197K	0.0479	0.0503	0.0645	0.0604	0.0545	0.0556	0.0655	0.0992		0.0745	0.0721	0.0518	0.0563	0.0601			0.0535		0.0564
W199H	0.0308	0.0589		0.0431	0.0641	0.0746	0.0607	0.0803		0.0437		0.0563	0.0571	0.0593	0.0594			0.0558	
S201W	0.0564	0.0612	0.0505	0.0644	0.0592		0.0492	0.0568		0.0637		0.0605	0.0699	0.0498	0.0533	0.0522	0.0522		0.0401
G202A	0.0585	0.0448		0.0769	0.0813	0.0828	0.0549	0.0714	0.0513	0.035	0.06	0.0574	0.0519	0.0655	0.0561		0.0647	0.0641	
R204T	0.0621		0.053	0.0559	0.08		0.0635	0.0722	0.0567	0.0721		0.0847	0.058	0.0574	0.0587	0.0632	0.0825		0.0547
N206G	0.0645			0.0632			0.0615	0.0655		0.0826	0.0682	0.06	0.0651	0.0539	0.053				0.0625
N206H	0.052		0.0515	0.0816	0.0781	0.0563	0.0464	0.0754	0.0545	0.0583			0.0562	0.0552	0.0594		0.0528	0.0546	
W212K	0.0455	0.0676		0.0592	0.054		0.0637	0.0606	0.0523	0.0436		0.0604	0.0503	0.055	0.051	0.0672			0.0374
G213F	0.0621			0.0568	0.0737		0.0495	0.0555	0.0655	0.067		0.0628		0.0498	0.0581			0.0517	0.0509
